In the supplement of paper PMC12230231:
± gives the standard deviation of the averaged measurements. Restriction of a single-cycle SIVsab GFP reporter by TRIM5α v1-loop variants in CRFK cells. Human variants: read share among cells still uninfected after two challenges over input, higher = gained restriction. Rhesus variants: share among infected cells over input, higher = lost restriction. Reporter dose not given per row. No active / inactive call per row; the paper calls a change when both replicates lie above its controls (mean + 2 SD of stop or wild-type variants, or the top frameshift score). Residues outside the varied loop are taken from Swiss-Prot. The paper reads the human single-substitution scores as noise; they and the rhesus combinations repeat poorly (rank correlation 0.3 to 0.4), indel scores repeat only for the top variants, rhesus substitutions well (0.9).

tested on: SIVsab (simian immunodeficiency virus of sabaeus monkeys), single-cycle GFP reporter, in CRFK cells; test: enrichment among infected cells over input (fold); higher = weaker restriction; conditions: library: human / rhesus combinations
Procedure: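 Pools of CRFK cells expressing variants of the TRIM5α v1 loop were challenged with the single-cycle reporter, sorted by GFP and sequenced; mean of two replicates.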

Sequence | enrichment
MASGILLNVKEEVTCPICLELLTEPLSLHCGHSFCQACITANHKKSMLYKEGERSCPVCRISYQPENIQPNRHVANIVEKLREVKLSPEEGQKVDHCARHGEKLLLFCQEDSKVICWLCERSQEHRGHHTFLMEEVAQEYHVKLQTALEMLRQKQQEAEKLEADIREEKASWKIQIDYDKTNVSADFEQLREILDWEESNELQNLEKEEEDILKSLTKSETEMVQQTQYMRELISELEHRLQGSMMDLLQGVDGIIKRIENMTLKKPKTFHKNQRRVFRAPDLKGMLDMFRELTDARRYWVDVTLAPNNISHAVIAEDKRQVSSRNPQIMYQARGTRFQSLTNFNYCTGVLGSQSITSGKHYWEVDVSKKSAWILGVCAGFQSDAMYNIEQNENYQPKYGYWVIGLQEGVKYSVFQDGSSHTPFAPFIVPLSVIICPDRVGVFVDYEACTVSFFNITNHGFLIYKFSQCSFSKPVFPYLNPRKCTVPMTLCSPSS [rhesus TRIM5α, 332-344 = QARGTRFQSLT] | 2.51 ± 2.8
MASGILLNVKEEVTCPICLELLTEPLSLHCGHSFCQACITANHKKSMLYKEGERSCPVCRISYQPENIQPNRHVANIVEKLREVKLSPEEGQKVDHCARHGEKLLLFCQEDSKVICWLCERSQEHRGHHTFLMEEVAQEYHVKLQTALEMLRQKQQEAEKLEADIREEKASWKIQIDYDKTNVSADFEQLREILDWEESNELQNLEKEEEDILKSLTKSETEMVQQTQYMRELISELEHRLQGSMMDLLQGVDGIIKRIENMTLKKPKTFHKNQRRVFRAPDLKGMLDMFRELTDARRYWVDVTLAPNNISHAVIAEDKRQVSSRNPQIMYGARGTLFTFQTFTNFNYCTGVLGSQSITSGKHYWEVDVSKKSAWILGVCAGFQSDAMYNIEQNENYQPKYGYWVIGLQEGVKYSVFQDGSSHTPFAPFIVPLSVIICPDRVGVFVDYEACTVSFFNITNHGFLIYKFSQCSFSKPVFPYLNPRKCTVPMTLCSPSS [rhesus TRIM5α, 332-344 = GARGTLFTFQTFT] | 1.01 ± 0.47
MASGILLNVKEEVTCPICLELLTEPLSLHCGHSFCQACITANHKKSMLYKEGERSCPVCRISYQPENIQPNRHVANIVEKLREVKLSPEEGQKVDHCARHGEKLLLFCQEDSKVICWLCERSQEHRGHHTFLMEEVAQEYHVKLQTALEMLRQKQQEAEKLEADIREEKASWKIQIDYDKTNVSADFEQLREILDWEESNELQNLEKEEEDILKSLTKSETEMVQQTQYMRELISELEHRLQGSMMDLLQGVDGIIKRIENMTLKKPKTFHKNQRRVFRAPDLKGMLDMFRELTDARRYWVDVTLAPNNISHAVIAEDKRQVSSRNPQIMYGARGTRFQSLVNFNYCTGVLGSQSITSGKHYWEVDVSKKSAWILGVCAGFQSDAMYNIEQNENYQPKYGYWVIGLQEGVKYSVFQDGSSHTPFAPFIVPLSVIICPDRVGVFVDYEACTVSFFNITNHGFLIYKFSQCSFSKPVFPYLNPRKCTVPMTLCSPSS [rhesus TRIM5α, 332-344 = GARGTRFQSLV] | 30.5 ± 41
MASGILLNVKEEVTCPICLELLTEPLSLHCGHSFCQACITANHKKSMLYKEGERSCPVCRISYQPENIQPNRHVANIVEKLREVKLSPEEGQKVDHCARHGEKLLLFCQEDSKVICWLCERSQEHRGHHTFLMEEVAQEYHVKLQTALEMLRQKQQEAEKLEADIREEKASWKIQIDYDKTNVSADFEQLREILDWEESNELQNLEKEEEDILKSLTKSETEMVQQTQYMRELISELEHRLQGSMMDLLQGVDGIIKRIENMTLKKPKTFHKNQRRVFRAPDLKGMLDMFRELTDARRYWVDVTLAPNNISHAVIAEDKRQVSSRNPQIMYGAPGTLFTFPSFVNFNYCTGVLGSQSITSGKHYWEVDVSKKSAWILGVCAGFQSDAMYNIEQNENYQPKYGYWVIGLQEGVKYSVFQDGSSHTPFAPFIVPLSVIICPDRVGVFVDYEACTVSFFNITNHGFLIYKFSQCSFSKPVFPYLNPRKCTVPMTLCSPSS [rhesus TRIM5α, 332-344 = GAPGTLFTFPSFV] | 0.265 ± 0.0054
MASGILLNVKEEVTCPICLELLTEPLSLHCGHSFCQACITANHKKSMLYKEGERSCPVCRISYQPENIQPNRHVANIVEKLREVKLSPEEGQKVDHCARHGEKLLLFCQEDSKVICWLCERSQEHRGHHTFLMEEVAQEYHVKLQTALEMLRQKQQEAEKLEADIREEKASWKIQIDYDKTNVSADFEQLREILDWEESNELQNLEKEEEDILKSLTKSETEMVQQTQYMRELISELEHRLQGSMMDLLQGVDGIIKRIENMTLKKPKTFHKNQRRVFRAPDLKGMLDMFRELTDARRYWVDVTLAPNNISHAVIAEDKRQVSSRNPQIMYGARGTRYTFPTLTNFNYCTGVLGSQSITSGKHYWEVDVSKKSAWILGVCAGFQSDAMYNIEQNENYQPKYGYWVIGLQEGVKYSVFQDGSSHTPFAPFIVPLSVIICPDRVGVFVDYEACTVSFFNITNHGFLIYKFSQCSFSKPVFPYLNPRKCTVPMTLCSPSS [rhesus TRIM5α, 332-344 = GARGTRYTFPTLT] | 0.816 ± 0.15
MASGILLNVKEEVTCPICLELLTEPLSLHCGHSFCQACITANHKKSMLYKEGERSCPVCRISYQPENIQPNRHVANIVEKLREVKLSPEEGQKVDHCARHGEKLLLFCQEDSKVICWLCERSQEHRGHHTFLMEEVAQEYHVKLQTALEMLRQKQQEAEKLEADIREEKASWKIQIDYDKTNVSADFEQLREILDWEESNELQNLEKEEEDILKSLTKSETEMVQQTQYMRELISELEHRLQGSMMDLLQGVDGIIKRIENMTLKKPKTFHKNQRRVFRAPDLKGMLDMFRELTDARRYWVDVTLAPNNISHAVIAEDKRQVSSRNPQIMYGAPGTLFTFQTFVNFNYCTGVLGSQSITSGKHYWEVDVSKKSAWILGVCAGFQSDAMYNIEQNENYQPKYGYWVIGLQEGVKYSVFQDGSSHTPFAPFIVPLSVIICPDRVGVFVDYEACTVSFFNITNHGFLIYKFSQCSFSKPVFPYLNPRKCTVPMTLCSPSS [rhesus TRIM5α, 332-344 = GAPGTLFTFQTFV] | 1.1 ± 0.41
MASGILLNVKEEVTCPICLELLTEPLSLHCGHSFCQACITANHKKSMLYKEGERSCPVCRISYQPENIQPNRHVANIVEKLREVKLSPEEGQKVDHCARHGEKLLLFCQEDSKVICWLCERSQEHRGHHTFLMEEVAQEYHVKLQTALEMLRQKQQEAEKLEADIREEKASWKIQIDYDKTNVSADFEQLREILDWEESNELQNLEKEEEDILKSLTKSETEMVQQTQYMRELISELEHRLQGSMMDLLQGVDGIIKRIENMTLKKPKTFHKNQRRVFRAPDLKGMLDMFRELTDARRYWVDVTLAPNNISHAVIAEDKRQVSSRNPQIMYGARGTLYTFQSFVNFNYCTGVLGSQSITSGKHYWEVDVSKKSAWILGVCAGFQSDAMYNIEQNENYQPKYGYWVIGLQEGVKYSVFQDGSSHTPFAPFIVPLSVIICPDRVGVFVDYEACTVSFFNITNHGFLIYKFSQCSFSKPVFPYLNPRKCTVPMTLCSPSS [rhesus TRIM5α, 332-344 = GARGTLYTFQSFV] | 0.719 ± 0.16
MASGILLNVKEEVTCPICLELLTEPLSLHCGHSFCQACITANHKKSMLYKEGERSCPVCRISYQPENIQPNRHVANIVEKLREVKLSPEEGQKVDHCARHGEKLLLFCQEDSKVICWLCERSQEHRGHHTFLMEEVAQEYHVKLQTALEMLRQKQQEAEKLEADIREEKASWKIQIDYDKTNVSADFEQLREILDWEESNELQNLEKEEEDILKSLTKSETEMVQQTQYMRELISELEHRLQGSMMDLLQGVDGIIKRIENMTLKKPKTFHKNQRRVFRAPDLKGMLDMFRELTDARRYWVDVTLAPNNISHAVIAEDKRQVSSRNPQIMYQARGTLYTFQSLTNFNYCTGVLGSQSITSGKHYWEVDVSKKSAWILGVCAGFQSDAMYNIEQNENYQPKYGYWVIGLQEGVKYSVFQDGSSHTPFAPFIVPLSVIICPDRVGVFVDYEACTVSFFNITNHGFLIYKFSQCSFSKPVFPYLNPRKCTVPMTLCSPSS [rhesus TRIM5α, 332-344 = QARGTLYTFQSLT] | 1.26 ± 0.18
MASGILLNVKEEVTCPICLELLTEPLSLHCGHSFCQACITANHKKSMLYKEGERSCPVCRISYQPENIQPNRHVANIVEKLREVKLSPEEGQKVDHCARHGEKLLLFCQEDSKVICWLCERSQEHRGHHTFLMEEVAQEYHVKLQTALEMLRQKQQEAEKLEADIREEKASWKIQIDYDKTNVSADFEQLREILDWEESNELQNLEKEEEDILKSLTKSETEMVQQTQYMRELISELEHRLQGSMMDLLQGVDGIIKRIENMTLKKPKTFHKNQRRVFRAPDLKGMLDMFRELTDARRYWVDVTLAPNNISHAVIAEDKRQVSSRNPQIMYQAPGTLYTFQSLVNFNYCTGVLGSQSITSGKHYWEVDVSKKSAWILGVCAGFQSDAMYNIEQNENYQPKYGYWVIGLQEGVKYSVFQDGSSHTPFAPFIVPLSVIICPDRVGVFVDYEACTVSFFNITNHGFLIYKFSQCSFSKPVFPYLNPRKCTVPMTLCSPSS [rhesus TRIM5α, 332-344 = QAPGTLYTFQSLV] | 1.57 ± 0.28
MASGILLNVKEEVTCPICLELLTEPLSLHCGHSFCQACITANHKKSMLYKEGERSCPVCRISYQPENIQPNRHVANIVEKLREVKLSPEEGQKVDHCARHGEKLLLFCQEDSKVICWLCERSQEHRGHHTFLMEEVAQEYHVKLQTALEMLRQKQQEAEKLEADIREEKASWKIQIDYDKTNVSADFEQLREILDWEESNELQNLEKEEEDILKSLTKSETEMVQQTQYMRELISELEHRLQGSMMDLLQGVDGIIKRIENMTLKKPKTFHKNQRRVFRAPDLKGMLDMFRELTDARRYWVDVTLAPNNISHAVIAEDKRQVSSRNPQIMYQARGTLFTFQSFVNFNYCTGVLGSQSITSGKHYWEVDVSKKSAWILGVCAGFQSDAMYNIEQNENYQPKYGYWVIGLQEGVKYSVFQDGSSHTPFAPFIVPLSVIICPDRVGVFVDYEACTVSFFNITNHGFLIYKFSQCSFSKPVFPYLNPRKCTVPMTLCSPSS [rhesus TRIM5α, 332-344 = QARGTLFTFQSFV] | 0.924 ± 0.058
MASGILLNVKEEVTCPICLELLTEPLSLHCGHSFCQACITANHKKSMLYKEGERSCPVCRISYQPENIQPNRHVANIVEKLREVKLSPEEGQKVDHCARHGEKLLLFCQEDSKVICWLCERSQEHRGHHTFLMEEVAQEYHVKLQTALEMLRQKQQEAEKLEADIREEKASWKIQIDYDKTNVSADFEQLREILDWEESNELQNLEKEEEDILKSLTKSETEMVQQTQYMRELISELEHRLQGSMMDLLQGVDGIIKRIENMTLKKPKTFHKNQRRVFRAPDLKGMLDMFRELTDARRYWVDVTLAPNNISHAVIAEDKRQVSSRNPQIMYGARGTLFTFPTLTNFNYCTGVLGSQSITSGKHYWEVDVSKKSAWILGVCAGFQSDAMYNIEQNENYQPKYGYWVIGLQEGVKYSVFQDGSSHTPFAPFIVPLSVIICPDRVGVFVDYEACTVSFFNITNHGFLIYKFSQCSFSKPVFPYLNPRKCTVPMTLCSPSS [rhesus TRIM5α, 332-344 = GARGTLFTFPTLT] | 0.198 ± 0.044
MASGILLNVKEEVTCPICLELLTEPLSLHCGHSFCQACITANHKKSMLYKEGERSCPVCRISYQPENIQPNRHVANIVEKLREVKLSPEEGQKVDHCARHGEKLLLFCQEDSKVICWLCERSQEHRGHHTFLMEEVAQEYHVKLQTALEMLRQKQQEAEKLEADIREEKASWKIQIDYDKTNVSADFEQLREILDWEESNELQNLEKEEEDILKSLTKSETEMVQQTQYMRELISELEHRLQGSMMDLLQGVDGIIKRIENMTLKKPKTFHKNQRRVFRAPDLKGMLDMFRELTDARRYWVDVTLAPNNISHAVIAEDKRQVSSRNPQIMYGARGTRFTFPSFTNFNYCTGVLGSQSITSGKHYWEVDVSKKSAWILGVCAGFQSDAMYNIEQNENYQPKYGYWVIGLQEGVKYSVFQDGSSHTPFAPFIVPLSVIICPDRVGVFVDYEACTVSFFNITNHGFLIYKFSQCSFSKPVFPYLNPRKCTVPMTLCSPSS [rhesus TRIM5α, 332-344 = GARGTRFTFPSFT] | 1.22 ± 0.1
